Drawing on PubChem BioAssay AID488969 (Vanderbilt High Throughput Screening Facility, 2010), this text covers z-score for 109 molecules.

In all, about 110,000 compounds were measured (“z-score”: median about -0.1, highest 2% from about 2 on). Some of the results follow. Activity calls are given as the source filed them.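 How the source made its calls: active means z-score in the third read window above 3 or below -3; inactive means the rest.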

The target of this assay is Metabotropic glutamate receptor 8 (Rattus norvegicus) (UniProt P70579). Nature of the assay: mGluR8 Gi/Go-coupled signaling modulation – cell-based, rat, thallium flux, HTS, primary screen (AID 488969). To be noted: HEK293 rat mGluR8, GIRK (G protein-gated inwardly rectifying potassium channel) thallium flux, FluoZin2; at 10 µM; stronger effect = higher value; submaximal glutamate (EC20) added with thallium.
Sequence of UniProt P70579 (P70579 whole entry, looked up): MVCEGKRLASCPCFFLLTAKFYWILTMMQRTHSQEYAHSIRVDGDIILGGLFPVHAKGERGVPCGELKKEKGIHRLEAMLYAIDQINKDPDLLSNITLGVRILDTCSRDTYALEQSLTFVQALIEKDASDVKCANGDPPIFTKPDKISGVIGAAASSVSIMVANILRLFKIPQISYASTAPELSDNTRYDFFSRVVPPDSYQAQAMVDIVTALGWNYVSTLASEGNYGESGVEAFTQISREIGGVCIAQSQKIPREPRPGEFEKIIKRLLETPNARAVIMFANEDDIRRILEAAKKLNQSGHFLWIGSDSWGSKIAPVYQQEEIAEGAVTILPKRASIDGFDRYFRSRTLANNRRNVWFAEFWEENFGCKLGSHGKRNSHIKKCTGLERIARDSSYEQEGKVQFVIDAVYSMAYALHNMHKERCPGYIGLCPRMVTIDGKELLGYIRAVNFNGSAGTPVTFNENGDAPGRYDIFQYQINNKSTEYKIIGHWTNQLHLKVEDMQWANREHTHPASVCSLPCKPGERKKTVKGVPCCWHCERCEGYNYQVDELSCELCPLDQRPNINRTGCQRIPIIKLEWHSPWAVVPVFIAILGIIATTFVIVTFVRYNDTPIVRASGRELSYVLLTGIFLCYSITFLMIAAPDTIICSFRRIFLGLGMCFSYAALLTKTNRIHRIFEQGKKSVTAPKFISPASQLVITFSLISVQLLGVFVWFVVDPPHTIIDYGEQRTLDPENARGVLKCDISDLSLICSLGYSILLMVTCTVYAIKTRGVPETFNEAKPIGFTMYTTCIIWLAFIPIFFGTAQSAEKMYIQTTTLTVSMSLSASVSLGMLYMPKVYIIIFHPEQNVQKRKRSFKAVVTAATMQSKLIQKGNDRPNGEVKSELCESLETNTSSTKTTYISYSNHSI
Consider `Cn1nnnc1SCC(=O)NCCCc1ccccc1`, for which the z-score is 0.96.
Turning to `CCCCOC(=O)n1c(SCC(=O)N(CC)CC)nc2ccccc21`, the z-score was -0.33.
`CC(=O)c1ccc(Oc2ccc(C(C)=O)cc2)cc1` came in with a z-score of -0.0838.
As for `COc1ccc(NS(=O)(=O)c2cc(NC(=O)CCSc3ccccc3)ccc2OC)cc1`, the z-score is -0.303.
For `Cc1ccc(S(=O)(=O)Nc2ccccc2-c2ccccc2NS(=O)(=O)c2ccc(C)cc2)cc1` the value was -0.159; for `CCOC(=O)NC1(Nc2ccc(C)cc2)Oc2ccccc2O1`, -0.0164; for `Cc1nc2c(Cl)cc(Cl)cc2[nH]1`, -0.18.
Turning to `COc1ccc(Cn2c(=O)[nH]c3cc(C(=O)NCc4ccc5c(c4)OCO5)ccc3c2=O)cc1`, the z-score is 0.0407.
As for `CCn1c(SC(C)C(=O)OC)nnc1-c1c[nH]c2ccccc12` (centres undefined), the z-score was -0.657.
For `c1ccc2c(c1)OCC(c1csc3ncnc(N4CCCC4)c13)O2` (centres undefined) the value was 1.23; for `Cc1c(Br)c([N+](=O)[O-])nn1CC(=O)NCc1cccs1`, -0.389; for `O=C(CNCC1CCCO1)N1CCN(S(=O)(=O)c2ccc3ccccc3c2)CC1` (centres undefined), -0.307.
`COc1ccc(-n2c(C)cc(=O)c3c2CC(C)(C)CC3=O)cc1`: the z-score is -0.746.
Take `CN1OC2C(=O)N(c3ccccc3)C(=O)C2C1c1ccc(F)cc1` (centres undefined): the z-score was -0.0795.
Under `CCCC(=O)N1c2ccc(-c3csc(N)n3)cc2CC1C` (centres undefined) stands 0.0581.
In the case of `Cn1c(=O)nc2n(Cc3ccccc3)c3cccc(Cl)c3cc-2c1=O`, the z-score is -0.689.
For `Nc1cccnc1Sc1ccc(Cl)cc1` the value was -0.0974; for `NC(=O)c1c(NC(=O)C2CCCO2)sc2c1CCCC2` (centres undefined), -0.0325.
In turn, `O=C(CNC(=O)c1cccc(F)c1)N/N=C/c1cc(Br)ccc1OC(=O)/C=C/c1ccco1` displayed a z-score of 2.46.
Take `CC(=O)N1Cc2ccccc2C(C)CC12CCCC2` (centres undefined): the z-score is -0.432.
In turn, `CCOC(=O)C1=CN(c2cccc(F)c2)C=C(C(=O)OCC)C1c1cc(OC)c(O)c([N+](=O)[O-])c1` registered a z-score of -0.207.
In turn, `Cc1ccc(S(=O)(=O)c2c(COC(=O)c3ccc(Cl)cc3)c(-c3ccccc3)nn2C)cc1` displayed a z-score of -0.106.
In turn, `O=C1CCCc2c1nc(-c1ccccc1)n2O` displayed a z-score of 0.581.
The molecule `O=C(OCCN=C1NS(=O)(=O)c2ccccc21)C1CC(=O)N(c2ccc3ccccc3c2)C1` (centres undefined) came in with a z-score of -0.0146.
Under `Cc1ccc(/C=C2/NC(=O)N(Cc3ccc(Br)cc3)C2=O)o1` stands -0.0548.
`O=S1(=O)C=C(Oc2ccc(F)cc2)c2ccccc21`: the z-score amounted to 0.0133.
`CCCCn1c2ccccc2c2nnc(SCC(=O)NC3=NN=C(c4ccccc4)CS3)nc21` registered a z-score of 0.151.
Under `C=CCn1c(SCC(=O)N(C)C2CCS(=O)(=O)C2)nnc1-c1ccncc1` (centres undefined) stands 0.693; under `CCCCP(=O)(CCCC)Cc1ccccc1O`, 0.0618; under `COc1ccc(CCNC(=O)CN(c2ccccc2OC)S(C)(=O)=O)cc1`, 0.153.
On to `O=S(=O)(NCCN1CCCC1)c1cccc2cccnc12`, for which the z-score came to 0.374.
`COc1ccc(CCn2nnnc2C(CC(C)C)N2CCN(c3ncccn3)CC2)cc1OC` (centres undefined): the z-score was -0.106.
Turning to `COc1ccc(S(=O)(=O)NCc2ccccc2Cl)cc1OC`, the z-score is -0.612.
Molecule `O=C(Oc1cccc(N2C(=O)C3C4c5ccccc5C(c5ccccc54)C3C2=O)c1)c1ccco1` (centres undefined) had a z-score of 0.0948.
`COC(=O)c1c(NC(=O)c2cccnc2)sc(C(=O)N(C)C)c1C` registered a z-score of -0.154.
In turn, `Cc1ccc2c(c1)-c1cc(C)nn1C(c1sccc1C)N2` (centres undefined) had a z-score of -0.539.
In the case of `CSCCC(NC(=O)c1cc([N+](=O)[O-])ccc1Cl)C(=O)O` (centres undefined), the z-score was 0.0813.
`O=C(CCCCCn1c(=O)[nH]c2ccsc2c1=O)NCc1ccc2c(c1)OCO2` returned a z-score of -0.285.
Turning to `COc1cccc(NC(=O)c2ccccc2-c2nc(-c3cccc(C)c3)no2)c1`, the z-score was -0.399.
`N#CCSc1nnc(COc2ccccc2)n1-c1ccccc1` displayed a z-score of 0.0947.
`CCOC(=O)N1CCN(C(=S)NC(C)(C)C)CC1` had a z-score of 0.0874.
For `Oc1c(C=Nc2cccc3cccnc23)sc2ccccc12` the value was 0.127; for `CCOC(=O)CSc1ncnc2c1nnn2-c1ccc(F)cc1`, -0.336; for `Cc1ccc(NC(=O)Cn2nnc(C(=O)NCc3ccccc3)c2N)cc1C`, 1.36.
Molecule `COc1ccc(S(=O)(=O)Nc2c(C)n(C)n(-c3ccccc3)c2=O)cc1` registered a z-score of -0.144.
In turn, `CN1C(=O)/C(=C/c2cn(CC(=O)N3CCCCC3)c3ccccc23)c2ccccc21` came in with a z-score of 1.32.
Take `CN(C)c1ccc(C(CNS(=O)(=O)c2ccc(F)cc2)c2c[nH]c3ccccc23)cc1` (centres undefined): the z-score was found to be 0.239.
For `Cc1nc2ccc(S(=O)(=O)NCC(=O)NCCN3CCCCC3C)cc2s1` (centres undefined) the value was -0.323.
Regarding `Clc1cccc(-c2ccc(/C=N/n3cnnc3)o2)c1Cl`, the z-score was active: 8.91.
For `COC(=O)c1nn(Cc2ccccc2)c(=O)c2ccccc12` the value was 0.721; for `Cc1nnc(NC(=O)c2cccc(S(=O)(=O)N3CCc4ccccc43)c2)s1`, 0.437.
In turn, `O=C(O)CCc1ccc(-c2cccs2)n1NC(=O)c1ccc(Cl)cc1` yielded a z-score of 0.532.
In turn, `CCCc1nc(SCC(=O)NCc2ccco2)c2c(=O)n(C)c(=O)n(C)c2n1` registered a z-score of 1.95.
For `CC(C)(C)c1ccc(C(=O)NNC(=S)NCC2CCCO2)cc1` (centres undefined), the z-score is -0.186.
For `CNc1oc(-c2ccccc2Cl)nc1P(=O)(c1ccccc1)c1ccccc1` the value was -0.354; for `O=C(CO/N=C/c1ccc2c(c1)OCO2)Nc1cccc(Br)c1`, -0.0351; for `CN(C)c1ccc(NC(=O)CSc2nc(N)c(C(=O)Nc3ccc(N(C)C)cc3)s2)cc1`, -0.193.
As to `O=C(Nc1ccc(S(=O)(=O)Nc2ncccn2)cc1)c1cncc(Br)c1`, the z-score is -0.359.
For `Cc1ccc(S(=O)(=O)c2nnn3c2nc(Nc2cccc(C)c2)c2ccccc23)cc1` the value was 0.199; for `CC1Cc2ccccc2N1S(=O)(=O)c1cccc(C(=O)c2nccn2C)c1` (centres undefined), -0.449; for `CCN(CCO)Cc1csc2ccccc12`, -0.304.
For `CCOC(=O)C1=C(C)NC(=O)NC1c1ccc(OCC(=O)Nc2ccccc2)c(OC)c1` (centres undefined), the z-score is -2.01.
The molecule `CC(C)(C)C(=O)/C(=C\c1ccc([N+](=O)[O-])cc1)n1cncn1` had a z-score of 0.114.
As for `O=C(NNS(=O)(=O)c1ccccc1)C1CCN(S(=O)(=O)c2ccccc2)CC1`, the z-score worked out at 0.653.
Consider `O=C(CSc1n[nH]c(-c2cccs2)n1)N1CCN(S(=O)(=O)c2ccccc2)CC1`, for which the z-score came out at 0.302.
The molecule `COc1ccc(C)cc1NC(=O)C(OC(=O)CNC(=O)c1ccc(Br)cc1)c1ccccc1` (centres undefined) returned a z-score of -0.0808.
For `CC1=NN(/C(=N\c2nnc(C)s2)Nc2ccc(C(C)(C)C)cc2)[C@H](c2ccc(C)cc2)S1`, the z-score was determined as 0.00752.
In the case of `CCCCN(C)C(=O)c1ccc(S(=O)(=O)N2CCOCC2)cc1`, the z-score was -0.13.
Molecule `COc1ccc(N(CCN2C(=O)c3ccccc3C2=O)C(=O)c2cccc([N+](=O)[O-])c2)cc1` yielded a z-score of -0.244.
Under `N#Cc1ccc(OCC(=O)N/N=C2/CC(c3ccccc3)Oc3ccccc32)cc1` (centres undefined) stands 0.107.
With `Cc1cc(/C(=N/O)C(C)(C)NO)ccc1Cl`, the z-score was -0.287.
As to `O=C(COC(=O)/C=C/c1ccc(OC(F)F)cc1)NCc1cccs1`, the z-score was -0.235.
With `O=C(CN1C(=O)c2ccccc2S1(=O)=O)NCc1cccnc1`, the z-score was -1.17.
`c1cncc(-c2nc(-c3ccc4c(c3)OCO4)cs2)c1`: the z-score is -0.165.
As to `CN1CCN(CC(=O)n2c3c(c4ccccc42)CCCC3)CC1`, the z-score was found to be 1.15.
`CCCOc1ccc(C(O)(CCC)CCN2CCCCC2)cc1` (centres undefined) returned a z-score of 0.623.
`CC(C)(C)OC(=O)CN1C(=O)C(Sc2n[nH]c(-c3ccccc3)n2)CCc2ccccc21` (centres undefined) registered a z-score of -0.388.
`S=C(NCc1ccco1)N1CCN(Cc2ccco2)CC1` came in with a z-score of -0.0222.
Under `CC(=O)c1ccc(CCCCCCCCCC(=O)O)s1` stands -0.202; under `CCc1nnc2sc(-c3ccc(NC(=O)CSc4ccc(Cl)cc4)cc3)nn12`, -0.223.
Turning to `O=C(c1ccc(CS(=O)(=O)Cc2ccc(Cl)cc2)o1)N1CCCC1`, the z-score turned out to be 0.047.
For `COc1cc2oc3ccccc3c2cc1N(CC(=O)N(C)C)S(=O)(=O)c1ccccc1` the value was 0.121; for `C=CCNC(=O)c1onc(CSc2ccc(C)c(C)c2)c1C(=O)O`, -0.413.
In turn, `O=C1NC(c2ccncc2)Nc2ccccc21` (centres undefined) gave a z-score of -0.555.
In turn, `CCOCCC(=O)Nc1cc(Cl)ccc1OC` yielded a z-score of -0.0457.
`Cc1ccc(S(=O)(=O)CCC(=O)O)cc1C` had a z-score of -0.128.
Under `COc1ccc(C2=NO[C@@H]3[C@@H]4C[C@@H]([C@H]5C(=O)N(C)C(=O)[C@@H]45)[C@H]23)cc1` stands 0.241; under `Cc1ccc(OCc2ccc(C(=O)O)o2)c([N+](=O)[O-])c1`, 0.133; under `COc1ccc(-c2cc(C(F)(F)F)n3nc(C(=O)Nc4cc(C)on4)cc3n2)cc1OC`, 0.0365.
The molecule `COc1ccc(OCc2cccc(C(=O)Nc3cc(C)on3)c2)cc1` came in with a z-score of -0.194.
For `Cc1nn(-c2ccc(F)cc2)c(Cl)c1/C=N/NC(=O)c1cccs1`, the z-score is 0.0105.
`Clc1ccccc1SCc1nc2ccccc2[nH]1`: the z-score is 0.555.
As for `O=C(Nc1ccccc1)OC(CN1CCCCC1)C(F)(F)F` (centres undefined), the z-score was -0.286.
With `CCCC(=O)n1nc(-c2cccnc2)nc1N`, the z-score stood at 0.575.
Under `COc1ccc(OC)c(-c2csc(N(Cc3ccco3)C(=O)c3cccs3)n2)c1` stands -0.0951; under `O=[N+]([O-])c1cccc(Cl)c1NCCNS(=O)(=O)c1ccccc1`, -0.368; under `COc1cccc(-n2c(C)nnc2SCC(=O)Nc2ccccc2N2CCOCC2)c1`, -0.0575.
For `Cc1cc(=O)oc2cc(OCC(O)CN3CCc4ccccc4C3)ccc12` (centres undefined), the z-score is -0.0362.
`Cc1cc(C)c(OCCN2C(=O)NC(C)(C)C2=O)c(Cl)c1`: the z-score was -0.0111.
Under `CCC(C)OC1OC(CO)C(O)C(O)C1NC(C)=O` (centres undefined) stands -0.208.
`CC(C)c1nc2c(c(=O)c3ccccc3n2C)c(=O)n1-c1ccc(F)cc1` had a z-score of -1.91.
In turn, `CC1(C)CC(=O)C2=C(C1)Nc1cc3c(cc1C2c1ccc(F)cc1)OCO3` (centres undefined) registered a z-score of -0.267.
For `O=C(/C=C/N1CCOCC1)c1coc2ccccc12` the value was 0.828.
The molecule `CC(=O)c1ccc(N2CCN(C(=O)C3CCCN(S(=O)(=O)c4cnc[nH]4)C3)CC2)cc1` (centres undefined) yielded a z-score of -0.164.
`CNS(=O)(=O)c1ccc(NC(=O)c2ccccn2)cc1` showed a z-score of -0.0858.
For `Cc1ccc(OCC(=O)N2CCN(c3nnc(-c4ccccc4)c4ccccc34)CC2)cc1`, the z-score is -0.206.
As for `CCCSc1n[nH]c(NC(C)=O)n1`, the z-score is -0.053.
Take `CCS(=O)(=O)NCc1ccc2c(c1)cc(C)n2C`: the z-score stood at 0.0119.
`CC1=C(C(=O)Nc2ccccc2)C(c2ccncc2)C(C#N)=C(SCC(=O)NC(C)C)N1` (centres undefined) displayed a z-score of 0.689.
